{"source": "the supplement of paper PMC8728848", "binders": {"B1": {"name": "Gal 7 (Homo sapiens) (protein)", "chain": "MSNVPHKSSLPEGIRPGTVLRIRGLVPPNASRFHVNLLCGEEGGSDAALHFNPRLDTSEVVFNSKEGGSWGREERGPGVPFGRGQPFEVLIIASDDGFKAVVGDAQYHHFRHRLPLARVRLVEVGGDVQLDSVRIF"}}, "assay_in_all_cases": "glycan array binding signal (z-score within array); higher = stronger binding", "conditions_in_all_cases": "glycan notation: IUPAC condensed, linker removed", "key": {"[1]": {"target": "Fuc(a1-2)Gal(b1-4)GlcNAc(b1-3)[Fuc(a1-2)Gal(b1-4)GlcNAc(b1-6)]GalNAc", "how_it_was_run": "(§1)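 The binding signal is a Z-score computed within each array and averaged over linkers. Arrays of the same protein sequence at different concentrations or buffers were also averaged together. Data originate from 3228 arrays in the Consortium for Functional Glycomics database, kept only where the protein sequence was available.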"}, "[2]": {"target": "Fuc(a1-2)Gal(b1-4)GlcNAc(b1-3)[Fuc(a1-3)[Gal(b1-4)]GlcNAc(b1-6)]Gal(b1-4)Glc", "how_it_was_run": "as §1"}, "[3]": {"target": "Fuc(a1-2)Gal(b1-4)GlcNAc(b1-6)GalNAc", "how_it_was_run": "as §1"}, "[4]": {"target": "Fuc(a1-2)Gal(b1-4)GlcNAc6S", "how_it_was_run": "as §1"}, "[5]": {"target": "Fuc(a1-2)Gal(b1-4)[Fuc(a1-3)]GalNAc(b1-3)Gal(b1-4)[Fuc(a1-3)]GlcNAc", "how_it_was_run": "as §1"}, "[6]": {"target": "Fuc(a1-2)Gal(b1-4)[Fuc(a1-3)]GalNAc(b1-3)Gal(b1-4)[Fuc(a1-3)]GlcNAc(b1-3)Gal(b1-4)[Fuc(a1-3)]GalNAc", "how_it_was_run": "as §1"}, "[7]": {"target": "Fuc(a1-2)Gal(b1-4)[Fuc(a1-3)]GlcNAc", "how_it_was_run": "as §1"}, "[8]": {"target": "Fuc(a1-2)Gal(b1-4)[Fuc(a1-3)]GlcNAc(b1-2)Man(a1-3)[Fuc(a1-2)Gal(b1-4)[Fuc(a1-3)]GlcNAc(b1-2)Man(a1-6)]Man(b1-4)GlcNAc(b1-4)GlcNAc", "how_it_was_run": "as §1"}, "[9]": {"target": "Fuc(a1-2)Gal(b1-4)[Fuc(a1-3)]GlcNAc(b1-2)Man(a1-3)[Fuc(a1-2)Gal(b1-4)[Fuc(a1-3)]GlcNAc(b1-2)Man(a1-6)]Man(b1-4)GlcNAc(b1-4)[Fuc(a1-6)]GlcNAc", "how_it_was_run": "as §1"}, "[10]": {"target": "Fuc(a1-2)Gal(b1-4)[Fuc(a1-3)]GlcNAc(b1-2)Man(a1-6)[Fuc(a1-2)Gal(b1-4)[Fuc(a1-3)]GlcNAc(b1-2)Man(a1-3)]Man(b1-4)GlcNAc(b1-4)[Fuc(a1-6)]GlcNAc", "how_it_was_run": "as §1"}, "[11]": {"target": "Fuc(a1-2)Gal(b1-4)[Fuc(a1-3)]GlcNAc(b1-2)[Fuc(a1-2)Gal(b1-4)[Fuc(a1-3)]GlcNAc(b1-4)]Man(a1-3)[Fuc(a1-2)Gal(b1-4)[Fuc(a1-3)]GlcNAc(b1-2)Man(a1-6)]Man(b1-4)GlcNAc(b1-4)GlcNAc", "how_it_was_run": "as §1"}, "[12]": {"target": "Fuc(a1-2)Gal(b1-4)[Fuc(a1-3)]GlcNAc(b1-3)Gal(b1-4)[Fuc(a1-3)]GlcNAc", "how_it_was_run": "as §1"}, "[13]": {"target": "Fuc(a1-2)Gal(b1-4)[Fuc(a1-3)]GlcNAc(b1-3)Gal(b1-4)[Fuc(a1-3)]GlcNAc(b1-3)Gal(b1-4)[Fuc(a1-3)]GlcNAc", "how_it_was_run": "as §1"}, "[14]": {"target": "Fuc(a1-2)Gal(b1-4)[Fuc(a1-3)]GlcNAc(b1-3)GalNAc", "how_it_was_run": "as §1"}, "[15]": {"target": "Fuc(a1-2)Gal(b1-4)[Fuc(a1-3)]GlcNAc(b1-3)[Neu5Ac(a2-6)Gal(b1-4)GlcNAc(b1-6)]Gal(b1-4)Glc", "how_it_was_run": "as §1"}, "[16]": {"target": "Fuc(a1-2)Gal3S(b1-4)GlcNAc", "how_it_was_run": "as §1"}, "[17]": {"target": "Fuc(a1-2)Gal6S(b1-3)GlcNAc", "how_it_was_run": "as §1"}, "[18]": {"target": "Fuc(a1-2)Gal6S(b1-3)GlcNAc6S", "how_it_was_run": "as §1"}, "Fuc(a1-2)Gal6S(b1-4)Glc": {"target": "Fuc(a1-2)Gal6S(b1-4)Glc", "how_it_was_run": "as §1"}, "[19]": {"target": "Fuc(a1-2)Gal6S(b1-4)Glc6S", "how_it_was_run": "as §1"}, "[20]": {"target": "Fuc(a1-2)Gal6S(b1-4)GlcNAc", "how_it_was_run": "as §1"}, "Fuc(a1-2)GlcNAc": {"target": "Fuc(a1-2)GlcNAc", "how_it_was_run": "as §1"}, "Fuc(a1-2)[Gal(a1-3)]Gal": {"target": "Fuc(a1-2)[Gal(a1-3)]Gal", "how_it_was_run": "as §1"}, "[21]": {"target": "Fuc(a1-2)[Gal(a1-3)]Gal(b1-3)GalNAc", "how_it_was_run": "as §1"}, "[22]": {"target": "Fuc(a1-2)[Gal(a1-3)]Gal(b1-3)GalNAc(b1-3)Gal(a1-4)Gal(b1-4)Glc", "how_it_was_run": "as §1"}, "[23]": {"target": "Fuc(a1-2)[Gal(a1-3)]Gal(b1-3)GlcNAc", "how_it_was_run": "as §1"}, "[24]": {"target": "Fuc(a1-2)[Gal(a1-3)]Gal(b1-3)GlcNAc(b1-2)Man(a1-3)[Fuc(a1-2)[Gal(a1-3)]Gal(b1-3)GlcNAc(b1-2)Man(a1-6)]Man(b1-4)GlcNAc(b1-4)GlcNAc", "how_it_was_run": "as §1"}, "[25]": {"target": "Fuc(a1-2)[Gal(a1-3)]Gal(b1-3)GlcNAc(b1-2)Man(a1-3)[Fuc(a1-2)[Gal(a1-3)]Gal(b1-3)GlcNAc(b1-2)Man(a1-6)]Man(b1-4)GlcNAc(b1-4)[Fuc(a1-6)]GlcNAc", "how_it_was_run": "as §1"}, "[26]": {"target": "Fuc(a1-2)[Gal(a1-3)]Gal(b1-3)GlcNAc(b1-3)GalNAc", "how_it_was_run": "as §1"}, "[27]": {"target": "Fuc(a1-2)[Gal(a1-3)]Gal(b1-3)GlcNAc(b1-6)GalNAc", "how_it_was_run": "as §1"}, "[28]": {"target": "Fuc(a1-2)[Gal(a1-3)]Gal(b1-4)Glc", "how_it_was_run": "as §1"}, "[29]": {"target": "Fuc(a1-2)[Gal(a1-3)]Gal(b1-4)GlcNAc", "how_it_was_run": "as §1"}, "[30]": {"target": "Fuc(a1-2)[Gal(a1-3)]Gal(b1-4)GlcNAc(b1-2)Man", "how_it_was_run": "as §1"}, "[31]": {"target": "Fuc(a1-2)[Gal(a1-3)]Gal(b1-4)GlcNAc(b1-2)Man(a1-3)[Fuc(a1-2)[Gal(a1-3)]Gal(b1-4)GlcNAc(b1-2)Man(a1-6)]Man(b1-4)GlcNAc(b1-4)GlcNAc", "how_it_was_run": "as §1"}, "[32]": {"target": "Fuc(a1-2)[Gal(a1-3)]Gal(b1-4)GlcNAc(b1-2)Man(a1-3)[Fuc(a1-2)[Gal(a1-3)]Gal(b1-4)GlcNAc(b1-2)Man(a1-6)]Man(b1-4)GlcNAc(b1-4)[Fuc(a1-6)]GlcNAc", "how_it_was_run": "as §1"}, "[33]": {"target": "Fuc(a1-2)[Gal(a1-3)]Gal(b1-4)GlcNAc(b1-3)GalNAc", "how_it_was_run": "as §1"}, "[34]": {"target": "Fuc(a1-2)[Gal(a1-3)]Gal(b1-4)GlcNAc(b1-3)[Fuc(a1-2)[Gal(a1-3)]Gal(b1-4)GlcNAc(b1-6)]GalNAc", "how_it_was_run": "as §1"}, "[35]": {"target": "Fuc(a1-2)[Gal(a1-3)]Gal(b1-4)GlcNAc(b1-6)GalNAc", "how_it_was_run": "as §1"}}, "note": "The other results are listed elsewhere or left out."}
{"binder": "B1", "values": [{"measurement": "glycan array binding signal (z-score)", "setting": "[1]", "value": 0.331}, {"measurement": "glycan array binding signal (z-score)", "setting": "[2]", "value": -0.211}, {"measurement": "glycan array binding signal (z-score)", "setting": "[3]", "value": 0.151}, {"measurement": "glycan array binding signal (z-score)", "setting": "[4]", "value": 0.179}, {"measurement": "glycan array binding signal (z-score)", "setting": "[5]", "value": -0.291}, {"measurement": "glycan array binding signal (z-score)", "setting": "[6]", "value": 1.89}, {"measurement": "glycan array binding signal (z-score)", "setting": "[7]", "value": -0.275}, {"measurement": "glycan array binding signal (z-score)", "setting": "[8]", "value": 0.254}, {"measurement": "glycan array binding signal (z-score)", "setting": "[9]", "value": -0.182}, {"measurement": "glycan array binding signal (z-score)", "setting": "[10]", "value": 0.553}, {"measurement": "glycan array binding signal (z-score)", "setting": "[11]", "value": 0.182}, {"measurement": "glycan array binding signal (z-score)", "setting": "[12]", "value": -0.101}, {"measurement": "glycan array binding signal (z-score)", "setting": "[13]", "value": 0.159}, {"measurement": "glycan array binding signal (z-score)", "setting": "[14]", "value": 0.989}, {"measurement": "glycan array binding signal (z-score)", "setting": "[15]", "value": -0.263}, {"measurement": "glycan array binding signal (z-score)", "setting": "[16]", "value": -0.264}, {"measurement": "glycan array binding signal (z-score)", "setting": "[17]", "value": -0.241}, {"measurement": "glycan array binding signal (z-score)", "setting": "[18]", "value": 0.593}, {"measurement": "glycan array binding signal (z-score)", "setting": "Fuc(a1-2)Gal6S(b1-4)Glc", "value": -0.204}, {"measurement": "glycan array binding signal (z-score)", "setting": "[19]", "value": -0.183}, {"measurement": "glycan array binding signal (z-score)", "setting": "[20]", "value": -0.328}, {"measurement": "glycan array binding signal (z-score)", "setting": "Fuc(a1-2)GlcNAc", "value": -0.201}, {"measurement": "glycan array binding signal (z-score)", "setting": "Fuc(a1-2)[Gal(a1-3)]Gal", "value": -0.317}, {"measurement": "glycan array binding signal (z-score)", "setting": "[21]", "value": -0.273}, {"measurement": "glycan array binding signal (z-score)", "setting": "[22]", "value": 0.431}, {"measurement": "glycan array binding signal (z-score)", "setting": "[23]", "value": 0.331}, {"measurement": "glycan array binding signal (z-score)", "setting": "[24]", "value": -0.015}, {"measurement": "glycan array binding signal (z-score)", "setting": "[25]", "value": 0.007}, {"measurement": "glycan array binding signal (z-score)", "setting": "[26]", "value": -0.115}, {"measurement": "glycan array binding signal (z-score)", "setting": "[27]", "value": -0.288}, {"measurement": "glycan array binding signal (z-score)", "setting": "[28]", "value": 0.681}, {"measurement": "glycan array binding signal (z-score)", "setting": "[29]", "value": 0.508}, {"measurement": "glycan array binding signal (z-score)", "setting": "[30]", "value": -0.249}, {"measurement": "glycan array binding signal (z-score)", "setting": "[31]", "value": -0.086}, {"measurement": "glycan array binding signal (z-score)", "setting": "[32]", "value": 0.088}, {"measurement": "glycan array binding signal (z-score)", "setting": "[33]", "value": -0.136}, {"measurement": "glycan array binding signal (z-score)", "setting": "[34]", "value": -0.267}, {"measurement": "glycan array binding signal (z-score)", "setting": "[35]", "value": -0.287}]}
